# Data taken from PubChem BioAssay AID686978 (National Center for Advancing Translational Sciences (NCATS), 2013).
# The whole screen tested about 420,000 compounds, of which about 64,000 (15%) were called active. This list was built around the results that the source calls inconclusive (neither active nor inactive); the mix of calls is not that of the screen. The call rests on the fitted dose curve; in most records, active means well fitted inhibition curve with a large enough effect; inconclusive means small, poorly fitted or top-dose-only effect; inactive means flat fitted curve, though single readings scatter. No potency is given beside an inconclusive call; the fits are too rough.
# Test: qHTS for Inhibitors of human tyrosyl-DNA phosphodiesterase 1 (TDP1): qHTS in cells in absence of CPT; further: nearly all actives have a fitted effect of over 55% in size
# Settings: DT40 Tdp1-/- hTDP1 cells, no CPT, ATP luminescence, 48 h; activity change, negative = growth inhibition: at 46.2 µM (top of the series)
# How it was run: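 Stably hTDP1-transfected Tdp1-null chicken DT40 cells were treated with library compounds minus camptothecin and grown for at least 48 hr at 37 °C, after which cellular ATP was quantified by luminescence.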
# On the % scale 0 is the no-effect control and ±100 the full control effect; potency means the concentration at half of the fitted maximal effect; tags describe the fitted curve by direction and shape.
SMILES,Potency,"activity change, negative = growth inhibition"
CN(Cc1cc(-c2ccccc2)on1)C(=O)c1cc(COc2c(F)cccc2F)on1,"inconclusive [inhibitor, single point]",–
C/C(=N/Nc1ccc(Cl)cc1)c1cnnc(-c2ccccc2)n1,"inconclusive [inhibitor, full curve, poor fit]",–
O=C(CCC(=O)n1ncc2ccccc21)NCc1ccc(F)cc1,–,inactive: 19.7%
COc1ccccc1N(CC(=O)NCCc1ccccc1)C(=O)CCC(=O)Nc1nccs1,"inconclusive [inhibitor, single point]",–
COc1cccc(CN2CC(C(=O)N3CCCCCC3)CCC2=O)c1 (stereo unspecified),–,inactive: 10.2%
O=C(CN1CCc2ccccc2C1)Nc1ccccc1N1CCCCCC1,"inconclusive [inhibitor, single point]",–
C=C(C)CNC(=S)Nc1nc2c(cc1C(=O)OCC)CCCC2,–,inactive: -3.86%
COc1ccc(C(C(=O)NCc2ccccc2)n2c(-c3ccccn3)nc3ccccc32)cc1 (stereo unspecified),"inconclusive [inhibitor, single point]",–
CCN1C(=O)[C@H]2[C@H]3CN=C(SCc4ccc(C(=O)OC)cc4)N3[C@@](C)(C(=O)OC)[C@H]2C1=O,"inconclusive [inhibitor, single point]",–
CN(C)CCCOc1ccc(Cl)cc1Br,–,inactive: -19.1%
COc1ccccc1/C=C(\NC(=O)c1cccc(C)c1)C(=O)Nc1ccccn1,–,inactive: -14.4%
O=C(/C=C/c1c[nH]c2ccccc12)c1ccccc1,"inconclusive [inhibitor, single point]",–
COc1cc2ccccc2cc1C(=O)Nc1nccs1,"inconclusive [inhibitor, single point]",–
CCN(CC)CCNC(=O)c1ccc(Cl)c(S(=O)(=O)Nc2ccccc2OC)c1,–,inconclusive: -33% [inhibitor]
Cc1c(C(=O)OCC(=O)NC2CCCCC2)oc2ccccc12,"inconclusive [inhibitor, full curve, poor fit]",–
CC1Nc2ncnc(N3CCN(c4ccccc4)CC3)c2N(Cc2ccccc2)C1=O (stereo unspecified),active: 16.4 µM,–
O=C(NCC1CCCCC1)c1[nH]c(C(F)(F)F)nc1-c1ccccc1,"inconclusive [inhibitor, single point]",–
Clc1ccc(/C=N/Nc2nnc(Cl)c3ccccc23)cc1,"inconclusive [inhibitor, partial curve]",–
CC(NC(=O)c1cccc(S(=O)(=O)N2CCc3ccccc3C2)c1)c1ccco1 (stereo unspecified),–,inactive: -22.5%
Cc1cc(C)c(S(=O)(=O)N2CCC3(CC2)OCCN3S(=O)(=O)c2cccs2)c(C)c1,active: 23.1 µM,–
CN1CCN(C(=O)CSc2nnc(COc3ccccc3)o2)CC1,"inconclusive [inhibitor, single point]",–
COc1ccc(/C=N/NC(=O)c2cc(-c3cccc(C)c3)nc3ccccc23)cc1O,active: 2.31 µM,–
CCCN1CCC(NC(=O)C2CC=CCC2C(=O)O)CC1 (stereo unspecified),–,inactive: 24.6%
Cc1cccc(/C=C(\C(=O)O)c2ccc(S(=O)(=O)N3CCCC3)s2)c1,–,inactive: -0.804%

SMILES,Potency,"activity change, negative = growth inhibition"
CCCN1CCC(NC(=S)Nc2ccc(C(=O)OCC)cc2)CC1,"inconclusive [inhibitor, single point]",–
O=C(Nc1ccc(F)cc1)C(c1ccnc2ccccc12)N1CCN(c2cccc(C(F)(F)F)n2)CC1 (stereo unspecified),active: 20.6 µM,–
COc1ccc(C(=O)C2C(c3ccc(-c4ccccc4[N+](=O)[O-])o3)NC(=O)NC2(O)C(F)(F)F)cc1 (stereo unspecified),active: 18.4 µM,–
COc1ccccc1C(=O)NCC(=O)N1CCN(S(=O)(=O)c2ccccc2C(F)(F)F)CC1,"inconclusive [inhibitor, single point]",–
O=C(COc1ccccc1)N1CCN(c2ccc([N+](=O)[O-])c(N3CCCCC3)c2)CC1,"inconclusive [inhibitor, single point]",–
Cc1ccc2c(c1)C(=O)N1[C@H]3c4cc(Br)ccc4OC[C@@H]3[C@H](c3ccccc3)[C@]1(C)C(=O)N2,active: 23.1 µM,–
Cc1cccc(NS(=O)(=O)c2ccc(C(=O)NCCCN3CCCC3=O)cc2)c1C,"inconclusive [inhibitor, single point]",–
CC(=O)c1ccc(S(=O)(=O)N2CCN(c3nc(-c4ccccc4)nc4ccccc34)CC2)cc1,"inconclusive [inhibitor, partial curve]",–
CCOC(=O)c1ccc(NC(=O)CSc2nc3ccccc3c(=O)n2CCC(=O)NC2CCCCC2)cc1,–,inactive: -10.2%
CCOC(=O)N1CCC(NC(=O)c2cc(S(=O)(=O)N3CCC4(CC3)OCCO4)ccc2F)CC1,"inconclusive [inhibitor, partial curve]",–
CN(C)S(=O)(=O)c1cccc(NC(=O)Cc2ccsc2)c1,"inconclusive [inhibitor, partial curve, poor fit]",–
CC1(C)S[C@@H]2[C@H](NC(=O)COc3ccccc3)C(=O)N2[C@@H]1C(=O)OCc1cccc2cccnc12,–,inactive: -13.2%
CC(=O)Nc1ccc(S(=O)(=O)Nc2ccc(-n3cnnn3)cc2)cc1,"inconclusive [inhibitor, single point]",–
CN(C)CCCC1(O)c2ccccc2CCc2ccccc21,–,inactive: -29.2%
C/C(=N\NC(=O)c1csc(C)c1C)c1ccc(Cl)s1,active: 23.1 µM,–
CC1=CC2=NC(=O)CC(C)(C(=O)N(CC(=O)NC3CCCC3)c3cc(C)cc(C)c3)N2C=C1 (stereo unspecified),active: 20.6 µM,–
COc1ccc(N2CC(C(=O)N3CCOCC3)CC2=O)cc1 (stereo unspecified),–,inactive: -1.02%
S=C(NCCCc1ccccc1)NC1CCCCC1,"inconclusive [inhibitor, single point]",–
O=C(COc1ccccc1Cl)Nc1ccc(S(=O)(=O)Nc2ccccn2)cc1,"inconclusive [inhibitor, partial curve]",–
CC(C)=C1C2C=CC1C(C(=O)Nc1cc(C)ccc1C)C2C(=O)O (stereo unspecified),"inconclusive [inhibitor, single point]",–
CCc1nccn1CCC(=O)N1CCCC(N2CCN(c3ccccc3F)CC2)C1 (stereo unspecified),–,inactive: -2.17%
C/C=C/C=N/NC(=O)CN(c1ccc(Br)cc1)S(=O)(=O)c1ccccc1,–,inactive: -9.07%
COC(=O)c1ccc(NC(=O)C23CC4CC(C2)CC(n2cnc(Cl)n2)(C4)C3)cc1,active: 16.4 µM,–
CC(=O)NS(=O)(=O)c1cccnc1Nc1cccc(Cl)c1C,"inconclusive [inhibitor, single point]",–

SMILES,Potency,"activity change, negative = growth inhibition"
CCOc1c2ccc(C(=O)NCc3ccco3)cc2nn1CC,–,inactive: -4.62%
O=C(N/N=C/c1cc([N+](=O)[O-])ccc1O)c1c[nH]c2ccccc12,"inconclusive [inhibitor, single point]",–
CC(=O)c1cc(-c2ccccc2)n(CC(=O)Nc2ccc(C)c(C)c2)c1C,active: 11.6 µM,–
COCCNC(=O)C1(C)CCN(Cc2csc(-c3ccc(Cl)cc3)n2)C1 (stereo unspecified),"inconclusive [inhibitor, single point]",–
Cc1ccc(Oc2cc(N3CCOCC3)nc(-c3ccccc3)n2)cc1,–,inconclusive: -34.2% [inhibitor]
Cc1nn(-c2ccccc2)c(Cl)c1/C=N/Nc1ccc(Cl)c(C(=O)O)c1,"inconclusive [inhibitor, single point]",–
CCOC(=O)N1CCN(CC(O)COc2ccc(-c3ccccc3)cc2)CC1 (stereo unspecified),"inconclusive [inhibitor, single point]",–
CCS(=O)(=O)Nc1cccc(-c2nc3cccnc3s2)c1,"inconclusive [inhibitor, partial curve]",–
COc1ccc(CN(CC(=O)NCc2ccc(F)cc2)C(=O)c2csnn2)cc1,–,inactive: -26%
CC(C)(C)C(=O)COC(=O)c1ccc2c(c1)C(=O)N(Cc1ccco1)C2=O,–,inactive: -18.9%
C[C@@H]1CN([C@H](C)CO)S(=O)(=O)c2ccc(Br)cc2O[C@H]1CN(C)C(=O)C1CCCCC1,active: 13 µM,–
CCCOc1ccc(F)cc1-c1cc(C(=O)NCc2ccc(F)cc2)[nH]n1,"inconclusive [inhibitor, partial curve]",–
CC(=O)c1ccc(NC(=O)CSCC(=O)Nc2ccc3ccccc3c2)cc1,"inconclusive [inhibitor, single point]",–
O=C(Nc1cccc(S(=O)(=O)N2CCCCCC2)c1)c1cncc(Br)c1,"inconclusive [inhibitor, single point]",–
Cc1ccc(CN2C(=O)CCC2C(=O)NCCN2CCOCC2)cc1 (stereo unspecified),–,inactive: 4.76%
CCOc1ccc(CNC(=O)CS(=O)(=O)c2cccc3nsnc23)cc1,–,inactive: -6.71%
COC(=O)c1ccccc1NC(=O)Cn1nc(C(F)(F)F)c2c1CCC2,"inconclusive [inhibitor, partial curve, poor fit]",–
Clc1ccc(COn2c(-c3ccc(Cl)cc3)nc3ccccc32)cc1,"inconclusive [inhibitor, single point]",–
CC(=O)N1c2ccc(S(=O)(=O)NCC3CCC(C(=O)N4CCC(C)CC4)CC3)cc2CC1C (stereo unspecified),"inconclusive [inhibitor, single point]",–
Cc1ccccc1NC(=O)C1CCCN(S(=O)(=O)c2cccc3cccnc23)C1 (stereo unspecified),"inconclusive [inhibitor, single point]",–
CCOC(=O)Cc1csc(NC(=O)CSc2nnc(-c3ccncc3)o2)n1,–,inconclusive: -36% [inhibitor]
COc1cccc(-n2cnc3cccc(N)c32)c1,–,inconclusive: -31.5% [inhibitor]
COc1ccc(/C=C2\SC(=S)NC2=O)cc1OS(=O)(=O)c1ccc(NC(C)=O)cc1,"inconclusive [inhibitor, single point]",–
